From PubChem BioAssay AID504332 (National Center for Advancing Translational Sciences (NCATS), 2011)
Screen size: about 350,000 compounds; about 31,000 (8.9%) were called active. The shares of active, inactive and inconclusive entries below differ from those in the screen. Calls come from the whole dose curve; as a rule, active = well fitted inhibition curve with a large enough effect; inconclusive = small, poorly fitted or top-dose-only effect; inactive = no such curve, though single readings can be large or run the other way. Potencies of inconclusive entries are doubtful fits and often do not repeat.

These molecules were tested against Histone-lysine N-methyltransferase EHMT2 (Homo sapiens) (UniProt Q96KQ7) (assay: qHTS Assay for Inhibitors of Histone Lysine Methyltransferase G9a). Settings: G9a H3K9 monomethylation, AlphaScreen, 2 h; activity, negative = inhibition: at 59 µM (top of the series) unless noted.
Procedure, shortened: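 Compounds were preincubated with 20 nM G9a for 15 min, after which biotinylated H3K9 peptide (500 nM) and SAM (20 uM) started a 2 h room-temperature reaction. Monomethylated product was quantified by antibody-based AlphaScreen chemiluminescence.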
% is set by controls: 0 for no effect and ±100 for the full control effect; potency is the fitted concentration of half-maximal effect; tags give direction and shape of the fitted curve.
Note: nearly all actives have a fitted effect of over 75% in size.

UniProt Q96KQ7, sequence (Q96KQ7 whole entry, looked up): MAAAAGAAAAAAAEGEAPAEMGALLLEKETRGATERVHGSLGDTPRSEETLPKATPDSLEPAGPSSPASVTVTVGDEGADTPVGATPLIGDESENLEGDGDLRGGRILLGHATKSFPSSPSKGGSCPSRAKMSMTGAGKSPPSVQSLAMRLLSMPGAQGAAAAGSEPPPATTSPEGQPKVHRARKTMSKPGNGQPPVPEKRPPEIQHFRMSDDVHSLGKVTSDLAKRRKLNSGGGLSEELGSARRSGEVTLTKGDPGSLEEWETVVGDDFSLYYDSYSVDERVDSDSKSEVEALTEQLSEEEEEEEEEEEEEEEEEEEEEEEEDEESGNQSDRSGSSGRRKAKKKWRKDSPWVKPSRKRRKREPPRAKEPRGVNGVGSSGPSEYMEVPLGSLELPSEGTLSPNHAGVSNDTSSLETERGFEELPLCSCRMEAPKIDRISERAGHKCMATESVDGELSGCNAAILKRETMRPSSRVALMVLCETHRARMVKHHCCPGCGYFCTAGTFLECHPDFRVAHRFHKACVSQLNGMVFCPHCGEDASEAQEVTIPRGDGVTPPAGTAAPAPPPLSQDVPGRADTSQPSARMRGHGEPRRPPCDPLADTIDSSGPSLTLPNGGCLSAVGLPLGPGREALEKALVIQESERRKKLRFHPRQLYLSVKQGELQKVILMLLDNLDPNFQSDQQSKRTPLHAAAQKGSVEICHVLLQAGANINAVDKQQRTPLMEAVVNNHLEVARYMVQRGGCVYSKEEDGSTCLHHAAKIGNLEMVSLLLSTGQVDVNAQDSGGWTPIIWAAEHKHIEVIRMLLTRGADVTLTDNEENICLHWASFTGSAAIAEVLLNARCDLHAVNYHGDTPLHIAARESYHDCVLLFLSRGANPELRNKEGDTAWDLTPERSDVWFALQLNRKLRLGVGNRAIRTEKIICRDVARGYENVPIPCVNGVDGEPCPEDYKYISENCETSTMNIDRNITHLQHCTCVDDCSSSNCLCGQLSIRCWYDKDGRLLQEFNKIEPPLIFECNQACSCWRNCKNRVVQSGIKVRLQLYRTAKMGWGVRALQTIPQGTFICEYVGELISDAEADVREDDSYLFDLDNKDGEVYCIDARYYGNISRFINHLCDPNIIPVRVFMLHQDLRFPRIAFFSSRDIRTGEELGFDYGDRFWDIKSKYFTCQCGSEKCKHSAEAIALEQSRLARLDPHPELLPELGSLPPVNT

Compound | Potency | activity, negative = inhibition
Cn1c(C(=O)Nc2ccc3c(c2)OCCO3)cc2c(=O)n(C)c3ccccc3c21 | inconclusive: 79.4 µM [inhibitor, single point] | 
CNC(=S)Nc1cccc(S(=O)(=O)NC2=NCCC2)c1 | active: 50.1 µM | 
Cc1c(-c2nc(N)nc(Nc3ccccc3F)n2)oc2ccccc12 | inconclusive: 0.158 µM [inhibitor, full curve, poor fit] | 
CCOC(=O)C1=C(C)N(CC(C)C)C(=O)/C1=C\c1ccc(OCC(=O)Nc2ccccc2)cc1 | active: 50.1 µM | 
Cc1cc(O)ccc1N/C=C(\C#N)c1nc2ccccc2o1 | inactive | 
O=C(NCc1ccccn1)c1ccc(OC2CCN(Cc3ccc(CO)o3)CC2)cc1 | inconclusive: 70.8 µM [inhibitor, single point] | 
O=C(CN1CCCc2ccccc21)NC(=O)NCc1ccco1 |  | inconclusive: -62.5% [inhibitor]
O=C(CC1N=C2c3ccccc3N=C(SCc3cccc(F)c3)N2C1=O)NCc1ccc2c(c1)OCO2 (stereo not given) | inactive | 
CC(=O)c1ccc(C(=O)N2CCc3c([nH]c4ccccc34)C2c2cccc(C)n2)s1 (stereo not given) | inconclusive: 35.5 µM [inhibitor, full curve] | 
Nc1ccc2nc(COc3ccccc3)[nH]c2c1 | inconclusive: 89.1 µM [inhibitor, single point] | 
CCN(CC)S(=O)(=O)c1ccc(N2CCc3cc(OC)c(OC)cc3C2)nc1 | inconclusive: 89.1 µM [inhibitor, single point] | 
O=C(c1cc2cc(Cl)ccc2[nH]1)N1CCc2ccccc2C1 | active: 50.1 µM | 
COc1ccc(CCC(=O)N2CCN(S(=O)(=O)c3cccs3)CC2)cc1 | active: 44.7 µM | 
Cc1cc(NS(=O)(=O)c2ccc(NC(=O)/C=C/c3ccco3)cc2)nc(C)n1 | active: 50.1 µM | 
Cc1ccccc1/C=C/c1cccc[n+]1C | inconclusive: 20 µM [inhibitor, single point] | 
CCOc1ccc(C2C(C(=O)C3CC3)N3C=C(C#N)C=CC3C2(C#N)C#N)cc1 (stereo not given) | active: 25.1 µM | 
CN1CCN(C(=O)c2ccc(NS(=O)(=O)c3ccccc3)cc2)CC1 | inconclusive: 5.62 µM [inhibitor, single point] | 
N#CC(=C1CCCC1)c1nc(-c2ccccc2)cs1 | inconclusive: 70.8 µM [inhibitor, single point] | 
C=CCn1c2ccccc2c2nnc(SCc3[nH]c(=O)[nH]c3C(=O)CCCCC(=O)OCC)nc21 | inconclusive: 31.6 µM [inhibitor, single point] | 
COc1ccccc1NC(=O)CSc1nnc(-c2ccco2)n1Cc1ccco1 | inconclusive: 79.4 µM [inhibitor, single point] | 
